From PubChem BioAssay AID488969 (Vanderbilt High Throughput Screening Facility, 2010)
Over roughly 110,000 compounds, “z-score” has its median near -0.1; the highest 2% begin near 2. Some of the results follow. Activity calls are given as the source filed them.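 The calls were made as follows: active = z-score in the third read window above 3 or below -3; inactive = the rest.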

The molecules below were run against Metabotropic glutamate receptor 8 (Rattus norvegicus) (UniProt P70579) (assay: rat mGluR8 modulators via GIRK flux, primary screen, cell-based, thallium flux, HTS (AID 488969)). Settings: HEK293 rat mGluR8, GIRK (G protein-gated inwardly rectifying potassium channel) thallium flux, FluoZin2; at 10 µM; stronger effect = higher value; submaximal glutamate (EC20) added with thallium.
UniProt P70579, sequence (P70579 whole entry, looked up): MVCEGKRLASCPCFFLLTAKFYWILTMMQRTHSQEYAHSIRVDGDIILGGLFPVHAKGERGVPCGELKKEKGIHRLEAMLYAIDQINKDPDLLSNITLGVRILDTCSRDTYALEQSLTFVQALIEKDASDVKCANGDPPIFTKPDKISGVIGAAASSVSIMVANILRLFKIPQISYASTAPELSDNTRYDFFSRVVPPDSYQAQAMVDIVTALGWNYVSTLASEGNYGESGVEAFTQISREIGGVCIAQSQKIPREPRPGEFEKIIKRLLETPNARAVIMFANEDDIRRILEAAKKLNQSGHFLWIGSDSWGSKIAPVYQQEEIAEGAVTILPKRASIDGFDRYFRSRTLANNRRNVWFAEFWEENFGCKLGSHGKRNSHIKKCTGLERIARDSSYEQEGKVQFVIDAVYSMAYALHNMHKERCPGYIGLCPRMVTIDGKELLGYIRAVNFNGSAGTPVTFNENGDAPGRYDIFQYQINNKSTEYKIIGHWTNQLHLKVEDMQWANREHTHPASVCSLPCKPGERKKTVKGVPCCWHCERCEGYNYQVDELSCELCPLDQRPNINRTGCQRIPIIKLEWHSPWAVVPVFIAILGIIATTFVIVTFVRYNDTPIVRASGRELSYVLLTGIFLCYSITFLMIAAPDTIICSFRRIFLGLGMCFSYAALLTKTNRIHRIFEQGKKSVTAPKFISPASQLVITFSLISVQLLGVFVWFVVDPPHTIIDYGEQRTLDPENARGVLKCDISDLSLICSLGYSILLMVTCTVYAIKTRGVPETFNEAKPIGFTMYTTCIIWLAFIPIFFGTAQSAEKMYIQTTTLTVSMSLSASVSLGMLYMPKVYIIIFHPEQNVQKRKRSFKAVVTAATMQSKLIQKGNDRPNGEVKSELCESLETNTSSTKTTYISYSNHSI

Row | SMILES | z-score
1 | COc1ccccc1NC(=O)C(C)NS(=O)(=O)c1ccc(F)cc1 (centres undefined) | 0.182
2 | O=C(COc1c(Cl)cc(Cl)cc1Cl)c1ccc(Cl)cc1 | -0.103
3 | Cc1cc(OCCCC(=O)N2CCCCC2)cc(C)c1Cl | -0.109
4 | O=C(CSc1nc(-c2ccccc2Cl)ns1)NCc1ccco1 | -0.983
5 | CN(C)CCCOC(=O)c1ccccc1 | -0.0127
6 | CCCOc1ccc(-c2nnn(CC(=O)OCC)n2)cc1 | 0.875
7 | CCOC(=O)c1c(C)[nH]c(C)c1C(=O)CSc1nnc(-c2ccncc2)n1C | 0.0361
8 | O=C(NCc1ccccc1)c1ccco1 | 0.339
9 | CCc1ccc(-c2nc(CN3CCC(C(=O)NCCc4ccc(OC)c(OC)c4)CC3)c(C)o2)cc1 | 0.471
10 | COc1ccc(-n2nc([N+](=O)[O-])c(=NCc3cccnc3)n2O)cc1 | 0.122
11 | O=C(Cn1cc(C(F)(F)F)ccc1=O)N1CCN(S(=O)(=O)c2ccccc2)CC1 | -1.45
12 | N/C(Cc1ccc(Cl)cc1)=N\OC(=O)C1CCCCC1 | 0.094
13 | CCc1nc2ccccc2n1Cc1ccc(OC)c(OC)c1 | 0.0653
14 | CCOC(=O)c1nnn(CC(=O)Nc2cc(Cl)ccc2C)c1C(=O)OCC | -0.605
15 | Cc1cccc(N(CC(=O)NCCSc2nc3ccccc3s2)S(=O)(=O)c2ccccc2)c1 | 0.251
16 | CC1(c2ccc3noc(-c4ccc(Cl)cc4)c3c2)OCCO1 | -0.278
17 | O=C(NCCN1CCCCC1)c1cc(OCC(F)(F)F)ccc1OCC(F)(F)F | -0.433
18 | O=S(=O)(Nc1ccc2nc(C(F)(F)F)[nH]c2c1)c1ccccc1 | active: 4.74
19 | COc1cccc(-n2c(COc3ccc(C)cc3)nnc2SCC(=O)O)c1 | -0.0168
20 | Cc1ccc(-c2nnc(C)c(N3CCOCC3)n2)cc1 | -0.00745
21 | CCOC(=O)N1CCN(C(=O)c2cccn3c(=O)c4sccc4nc23)CC1 | -0.0754
22 | O=C(CSc1nnnn1-c1cccc2c1CCCC2)N1CCCC1 | 0.0215
23 | Cc1ccc[n+](CC(=O)c2cc3ccccc3oc2=O)c1 | -0.335
24 | O=C1C(Cc2cccc([N+](=O)[O-])c2)S/C(=N/N=C/c2ccco2)N1c1ccccc1 (centres undefined) | -0.0379
25 | O=C(Oc1cc2oc(=O)cc(-c3ccccc3)c2cc1Cl)C1CCCCC1 | -0.221
26 | CCN1C(=O)CSC1=NC1C2CC3CC(C2)CC1C3 (centres undefined) | 0.387
27 | O=C1CSC(=S)N1CC1CCCO1 (centres undefined) | -0.08

Row | SMILES | z-score
28 | COn1c(-c2ccccc2)nc2ccc(Cl)cc21 | -0.0829
29 | COc1ccc(C2=NOC3(CC(=O)N(c4ccc5ccccc5c4)C3=O)C2)c(OC)c1 (centres undefined) | 0.0522
30 | COc1ccc(Oc2ccccc2C=O)cc1 | -0.297
31 | CC(/C=C/c1ccc(O)cc1)=N/O | -0.0742
32 | COc1ccc(-c2cc3c(=O)n(CC(=O)NC4CCN(Cc5ccccc5)CC4)ncn3n2)cc1 | -0.042
33 | CCOc1ccc2oc(C(=O)Nc3ccc(N4CCOCC4)cc3)c(C)c2c1 | -0.537
34 | O=C(NCCc1ccccc1)C(c1cccs1)N(C(=O)c1csnn1)C1CC1 (centres undefined) | -0.329
35 | COC(=O)/C(=C/Nc1ccccc1)[N+](=O)[O-] | -0.132
36 | COC(=O)c1c(C)oc2c1cc(NS(=O)(=O)c1cccs1)c1ccccc12 | -0.0313
37 | Cc1cccc(C)c1Nc1nnc(SCC(=O)NCc2ccco2)s1 | -1.08
38 | O=C1[C@@H]2[C@@H]3C[C@@H]([C@H]4ON=C(c5ccc(Cl)cc5)[C@@H]34)[C@@H]2C(=O)N1C1CCCCC1 | 0.352
39 | CCS(=O)(=O)c1ccc(O)c(NC(=O)COc2ccc(C)cc2)c1 | -0.136
40 | Cc1cc(C)cc(Nc2cnn(C34CC5CC(CC(CC(=O)O)(C5)C3)C4)c(=O)c2Cl)c1 | -0.118
41 | Cc1ccc(CSc2nnc(-c3ccncc3)n2CC2CCCO2)cc1 (centres undefined) | 0.0783
42 | CCc1ccc(C2CC(=O)NC(SCC(=O)OC(C)C)=C2C#N)cc1 (centres undefined) | -0.0811
43 | Cc1sc2nc(SCc3nc(-c4cccs4)no3)n(-c3ccccc3)c(=O)c2c1C | 0.0145
44 | CN1CCN(C(c2cccc(Cl)c2)c2ccccc2Cl)CC1 (centres undefined) | 0.826
45 | Cc1ccccc1CSc1nc(-c2ccccc2)cc(=O)[nH]1 | -0.423
46 | COC(=O)c1ccc2c(=O)n(CCCN3CCOCC3)c(=S)[nH]c2c1 | 1
47 | CCC(=O)/C=C1/Sc2ccccc2N1CC | 0.119
48 | CC1CCN(S(=O)(=O)c2cccc(C(=O)Nc3ccccn3)c2)CC1 | 0.081
49 | COc1ccc(/C=N/NC(=O)c2cc(Br)ccc2O)cc1Cn1cc(Cl)cn1 | 0.377
50 | Cc1nc(Nc2nc(=O)c3ccccc3n2C)nc2c(C)cccc12 | 0.623
51 | COc1ccc(C(=O)NC(C)c2nc3ccccc3[nH]2)cc1OC (centres undefined) | -0.126
52 | Cc1cc(NS(=O)(=O)c2ccccc2)c([N+](=O)[O-])cc1C | 1.41
53 | O=C(CN1C(=O)c2ccccc2C1=O)Nc1cccc([N+](=O)[O-])c1 | -1.4
54 | COc1cc2c(cc1NC(=O)c1ccc3c(c1)OCO3)oc1ccccc12 | -0.114
